In PubChem BioAssay AID686979 (National Center for Advancing Translational Sciences (NCATS), 2013):
Screen size: about 420,000 compounds; about 50,000 (12%) were called active. This list was built around the results that the source calls inconclusive (neither active nor inactive); the mix of calls is not that of the screen. The call rests on the fitted dose curve; in most records, active means well fitted inhibition curve with a large enough effect; inconclusive means small, poorly fitted or top-dose-only effect; inactive means flat fitted curve, though single readings scatter. Potencies of inconclusive entries are left out as doubtful fits. Where a SMILES comes first, the peptide text is derived from it. [ ]: non-standard residue; d: D form. The star is where a group is joined. ξ: configuration not given here. ξY = NC(Cc1ccc(O)cc1)C(=O)O; Cbz = O=C(OCc1ccccc1)*; OtBu = CC(C)(C)O*; tBu = CC(C)(C)*
On the % scale 0 is the no-effect control and ±100 the full control effect; potency means the concentration at half of the fitted maximal effect; tags describe the fitted curve by direction and shape.

Experiment: qHTS for Inhibitors of human tyrosyl-DNA phosphodiesterase 1 (TDP1): qHTS in cells in presence of CPT; further: nearly all actives have a fitted effect of over 55% in size
Settings: chicken DT40 Tdp1-/-;hTDP1 cells + 20 nM CPT, ATP luminescence, 48 h; activity change, negative = growth inhibition: at 46.2 µM (top of the series) unless noted
How it was run: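 Chicken DT40 Tdp1-/- cells stably complemented with human TDP1 were seeded at 400 cells/well in medium containing 20 nM camptothecin, exposed to pin-transferred compounds, and grown at 37 °C for at least 48 hr. Viability was read as ATP luminescence.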
For `C=CCCC(=O)N1CCCC(Cc2cccc(Cl)c2)(C(=O)OCC)C1` (stereo not given), the Potency was inconclusive [inhibitor, single point].
For `CCCCc1nnc(NC(=O)CS(=O)(=O)Cc2ccccc2)s1`, the “activity change, negative = growth inhibition” value was inactive: 3.05%.
In the case of `COc1cccc2sc(N(Cc3cccnc3)C(=O)c3ccc4c(c3)OCCO4)nc12`, the Potency is reported as inconclusive [inhibitor, single point].
For `CC(=O)c1ccc(OCCCC(=O)Nc2cc(S(=O)(=O)N3CCCCC3)ccc2C)cc1`, the Potency was inconclusive [inhibitor, single point].
With `Cc1cc(NC(=O)c2ccco2)ccc1NC(=O)c1ccco1` the Potency was inconclusive [inhibitor, single point].
For `CC(=O)OC1C=C[C@]2(C)C(CC(OC(C)=O)[C@@]3(C)C4=CC(=O)OC(c5ccoc5)[C@]4(C)CCC23)C1(C)C` (stereo not given in full), the Potency was inconclusive [inhibitor, single point].
For `Cc1ccc(-c2nc(CS(=O)CC(=O)NCc3ccc(Cl)cc3)c(C)o2)cc1` (stereo not given), the Potency was inconclusive [inhibitor, single point].
With `COC(=O)c1cc2occc2n1Cc1nc(-c2ccccc2)oc1C` the Potency was inconclusive [inhibitor, partial curve, poor fit].
In the case of `O=C(Nc1ccc(-c2cn3ccsc3n2)cc1)c1ccc(F)c(S(=O)(=O)N2CCOCC2)c1`, the Potency is reported as inconclusive [inhibitor, single point].
With `CC(=O)NCCc1ccc(C(=O)COC(=O)c2cccn2C)cc1` the “activity change, negative = growth inhibition” value was inactive: -2.24%.
With `O=C(CO/N=C/c1ccc(OC(F)F)cc1)NCc1ccco1` the activity change, negative = growth inhibition was inconclusive: -33.9% [inhibitor].
With `COc1ccccc1/C=C/C(=O)NCC(=O)N/N=C(/C)c1ccc(Cl)cc1` the Potency was inconclusive [inhibitor, single point].
For `COC(=O)[C@@H](c1ccccc1Cl)N1CCc2sccc2C1`, the Potency was inconclusive [inhibitor, single point].
In the case of `CN(C(=O)CSc1nnc(C(F)(F)F)n1N)C1CCS(=O)(=O)C1` (stereo not given), the “activity change, negative = growth inhibition” value is reported as inactive: -1.3%.
With `COc1cc(/C=C2\SC(=Nc3c(C)n(C)n(-c4ccccc4)c3=O)NC2=O)ccc1O` the Potency was inconclusive [inhibitor, partial curve].
In the case of `CN(C)c1ccc(CNC(=O)C2CCN(c3nc4ccccc4[nH]3)CC2)cc1`, the Potency is reported as inconclusive [inhibitor, partial curve].
For `CC(=O)C1=C(O)C(=O)N(CCNCCO)C1c1ccccc1` (stereo not given), the “activity change, negative = growth inhibition” value was inactive: -5.36%.
With `COc1ccc2cc(C(=O)N3CCN(c4ccccc4OC)CC3)[nH]c2c1` the Potency was inconclusive [inhibitor, single point].
In the case of `COC(=O)c1sc(NC(=O)c2cc(C)on2)nc1C`, the “activity change, negative = growth inhibition” value is reported as inactive: -13.2%.
For `Cc1ccc(C2OC34CCCCCC3C(C#N)(C(=N)O4)C2(C#N)C#N)cc1` (stereo not given), the “activity change, negative = growth inhibition” value was inactive: -25.6%.
With `Cc1cccc(NC(=O)Cn2cc(C(=O)C3CCCCC3)c3ccccc32)c1` the Potency was inconclusive [inhibitor, single point].
For `COc1cc2nc(NCCCN3CCN(C)CC3)n3nc(-c4ccccc4)nc3c2cc1OC`, the Potency was inconclusive [inhibitor, single point].
For `COCCOC(=O)c1c(C)oc2ccc(O)c(CN3CCC(C)CC3)c12`, the “activity change, negative = growth inhibition” value was inactive: -22.8%.
In the case of `CCOC(=O)[C@H]1[C@H]2COc3ccc(Br)cc3[C@@H]2N2C(=O)CN(Cc3ccc(F)cc3)C(=O)[C@@]12C`, the Potency is reported as inconclusive [inhibitor, single point].
With `CC1(C)Cc2c(sc(NC(=O)c3ccc(C(=O)c4ccccc4)cc3)c2C(N)=O)C(C)(C)N1` the Potency was inconclusive [inhibitor, single point].
For `O=C(C1CCC(CNS(=O)(=O)c2cccc3nsnc23)CC1)N1CCN(c2ccccn2)CC1` (stereo not given), the Potency was inconclusive [inhibitor, single point].
In the case of `CCOC(=O)[C@]12CCCC=C1N(CCC1=CCCCC1)C(=O)[C@H](CC(=O)N1CCSCC1)C2`, the Potency is reported as inconclusive [inhibitor, single point].
For `CC(C)(C)c1ccc(-c2nc(C#N)c(NCCCn3ccnc3)o2)cc1`, the Potency was inconclusive [inhibitor, single point].
With `CCc1cc(C(=O)N2CCN(c3ncccn3)CC2)sc1C` the “activity change, negative = growth inhibition” value was inactive: -14.6%.
With `CSc1ccc(CCNC(=O)NCc2noc3ccccc23)cc1` the Potency was inconclusive [inhibitor, single point].
For `CCN(CC)C(=O)c1cccc(-c2csc(C(O)c3ccc(F)c(OC)c3)n2)c1` (stereo not given), the Potency was active: 18.4 µM.
For `CC(CC(F)(F)F)N1CCC(n2nccc2NC(=O)CCCc2ccccc2)CC1` (stereo not given), the Potency was inconclusive [inhibitor, single point].
With `CCOC(=O)CC(NC(=O)CCc1c(C)nc2c(-c3ccccc3)c(C)nn2c1C)c1ccc(OC(C)C)cc1` (stereo not given) the Potency was inconclusive [inhibitor, single point].
With `CCOC(=O)COc1ccc(C2C(C(=O)OC)=C(C)NC3=C2C(=O)c2ccccc23)cc1Cl` (stereo not given) the Potency was inconclusive [inhibitor, single point].
In the case of `COc1cc2c(-c3cccc(Cl)c3)nc3c(c(C)nn3-c3ccccc3)c2cc1OC`, the “activity change, negative = growth inhibition” value is reported as inactive: -2.1%.
With `COc1ccc(Cn2c(CCC(=O)NCc3ccc(Cl)cc3)nc3cccnc32)cc1` the “activity change, negative = growth inhibition” value was inactive: -4.08%.
With `CC(C)NC(=S)N/N=C1\CCCCc2ccccc21` the Potency was inconclusive [inhibitor, single point].
With `COc1ccccc1CNc1ccnc(-c2c(C)noc2C)n1` the Potency was inconclusive [inhibitor, single point].
In the case of `Cc1cc(CNC(=O)c2cccc(OC3CCN(S(=O)(=O)N(C)C)CC3)c2)on1`, the Potency is reported as inconclusive [inhibitor, single point].
In the case of `O=C(CSc1cn(CC(=O)N2CCCC2)c2ccccc12)Nc1ccc(Cl)cc1`, the Potency is reported as inconclusive [inhibitor, single point].
For `S=c1[nH]cnc2sc(Nc3ccccc3)nc12`, the Potency was active: 14.6 µM.
With `CN(C)CCCNCC(=O)NN(c1ccccc1)c1ccccc1` the “activity change, negative = growth inhibition” value was inactive: -22.8%.
In the case of `C=CCN(C(=O)c1cccc(N2C(=O)C3CC=CC(C)C3C2=O)c1)c1ccccc1` (stereo not given), the Potency is reported as inconclusive [inhibitor, partial curve].
For `CN(C)c1ccc(/C=C2\C(=O)/C(=C\c3ccc(N(C)C)cc3)c3ccccc32)cc1`, the Potency was inconclusive [inhibitor, partial curve].
With `CC(C)(C)C(=O)Nc1ccccc1C(=O)NCCC(=O)Nc1ccccc1` the “activity change, negative = growth inhibition” value was inactive: -20.7%.
In the case of `CCOC(=O)C1=NOC2(C1)C(=O)Nc1ccc(OC(F)(F)F)cc12` (stereo not given), the Potency is reported as inconclusive [inhibitor, single point].
In the case of `Cc1c(-c2ccccc2)oc2c(C(=O)OCC(=O)Nc3ccc(C(N)=O)cc3)cccc2c1=O`, the Potency is reported as inconclusive [inhibitor, single point].
With `COc1ccc(CCNC(=O)c2ccc(Cl)c(S(=O)(=O)N(C)c3ccccc3)c2)cc1` the Potency was active: 20.6 µM.
In the case of `O=C(NC(Cc1ccccc1)C(=O)NC(Cc1ccccc1)C(=O)O)c1ccccc1` (stereo not given), the “activity change, negative = growth inhibition” value is reported as inactive: 4.55%.
For `O=c1cc(CN2CCN(c3ccccc3O)CC2)nc2sccn12`, the Potency was inconclusive [inhibitor, partial curve].
In the case of `CCOC(=O)c1cc(S(=O)(=O)Nc2cc(OC)ccc2OC)[nH]n1`, the Potency is reported as inconclusive [inhibitor, partial curve].
With `Cc1cc(NC(=O)CCN2CCN(C/C=C/c3ccccc3)CC2)ccc1Br` the Potency was inconclusive [inhibitor, single point].
In the case of `CCN(CC)CCn1c(NC(=O)c2ccc(C(F)(F)F)cc2)nc2ccccc21`, the “activity change, negative = growth inhibition” value is reported as inactive: -3.22%.
In the case of `CCOc1ccc(/C=C/C(=O)c2ccccc2)cc1OC`, the Potency is reported as inconclusive [inhibitor, single point].
For `COc1ccccc1OCC(=O)OCC(=O)Nc1ncc(Cl)cc1Cl`, the “activity change, negative = growth inhibition” value was inactive: -23.3%.
In the case of `Cc1ccccc1COC(=O)c1cc([N+](=O)[O-])ccc1N1CCOCC1`, the Potency is reported as inconclusive [inhibitor, single point].
With `Cc1ccc2nc(-c3ccc(N=Nc4cc(S(=O)(=O)O)c5ccccc5c4O)cc3)sc2c1S(=O)(=O)O` the Potency was inconclusive [inhibitor, single point].
In the case of `COc1ccc(-c2ccc(CN3C(C(C)C)C(=O)N(Cc4cn(CC5CCCCC5)nn4)CCS3(=O)=O)cc2)cn1` (stereo not given), the Potency is reported as inconclusive [inhibitor, single point].
With `CC(C)(C)OC(=O)C(Cc1ccc(OC(C)(C)C)cc1)NC(=O)CNC(=O)CNC(=O)OCc1ccccc1` (stereo not drawn) (Cbz-Gly-Gly-[ξY](tBu)-OtBu) the Potency was inconclusive [inhibitor, single point].
For `COc1ccc(C(=O)N2CCC[C@@]3(CCN(c4cccc(-c5ccccc5)c4)C3)C2)cc1`, the Potency was inconclusive [inhibitor, partial curve, poor fit].
With `C=CCOc1ccc(CNc2ccc3[nH]c(=O)[nH]c3c2)cc1` the Potency was inconclusive [inhibitor, single point].
In the case of `Cc1cc(O)c(C(c2cccc(F)c2)N2CCN(c3ccccc3)CC2)c(=O)n1Cc1ccco1` (stereo not given), the “activity change, negative = growth inhibition” value is reported as inactive: -24.1%.
For `CCc1ccc(-c2c(C)sc(NC(C)=O)c2C(N)=O)cc1`, the Potency was inconclusive [inhibitor, partial curve].
In the case of `COc1ccc(CCNC(=O)c2ccc3c(c2)NC(=O)CS3)cc1OC`, the “activity change, negative = growth inhibition” value is reported as inactive: -29%.
With `Cc1nc2nc(C)n(CCN3CCOCC3)c(=O)c2c(-c2cccc([N+](=O)[O-])c2)c1C(=O)CCCCCCCCCCN1CCC(c2ccccc2)(c2ccccc2)CC1` the Potency was inconclusive [inhibitor, single point].
